Results reported in the supplement of paper PMC4723716.
± gives the uncertainty stated by the source. Over roughly 9,900 compounds, “viability index relative to DMSO control” has its median near 1; the lowest 2% begin near 0.85. This is one part of the list.

Tested on: Plasmodium falciparum NF54 stage V gametocytes
Assay: viability index relative to DMSO control (fraction); higher = less gametocyte killing
Conditions: 2.5 µM, incubation time: 72 h
In short: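 Stage V gametocytes of P. falciparum NF54 were held in serum-free screening medium at 0.75% gametocytemia and 1.25% hematocrit, 10 µl per well of a 1,536-well plate, and exposed to compound at 2.5 µM for 72 hr at 37°C under low oxygen. A 3 µl mix of 2.5 µM MitoTracker Red CMXRos with 0.13% saponin was then added for one to two hours, after which one field per well was imaged and red particles of 20–70 µm2 were counted. The viability index equals this count divided by the plate mean from wells given solvent alone.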

[1] = library set: Broad Institute DOS

SMILES	viability index [1]	viability index (library set: Broad Institute Blood Stage)
Cc1ccc(S(=O)(=O)Nc2ccc3c(c2)C(=O)N([C@H](C)CO)C[C@@H](C)[C@@H](CN(C)Cc2ccc(C(F)(F)F)cc2)O3)cc1	1.05 ± 0.083	–
Cc1nn(C)cc1NC(=O)C[C@@H]1CC[C@@H]2[C@@H](COc3ccc(NC(=O)C4CCOCC4)cc3C(=O)N2C)O1	1.01 ± 0.17	–
O=C(c1ccc(F)cc1)N1CC(=O)N2[C@H](C1)[C@@H](c1ccc(C#CCC3CCCC3)cc1)[C@@H]2CO	1.08 ± 0.011	–
CO[C@H](CN(C)S(=O)(=O)c1ccc(C)cc1)[C@@H](C)CN(C(=O)Nc1ccccc1F)[C@H](C)CO	1.04 ± 0.057	–
COc1ccc2c3c([C@H](CO)N(Cc4ccccc4F)C[C@]33CCN(CC3)C(=O)C3CCOCC3)n(C)c2c1	0.926 ± 0.078	–
COc1ccccc1NC(=O)N1C[C@@H](O)COC[C@@H]2O[C@@H](CC(=O)NCCc3ccncc3)CC[C@H]21	1.038 ± 0.0098	–
Fc1cccc(-c2ccc([C@H]3[C@@H]4CN(Cc5cncnc5)C[C@H]3N4)cc2)c1	1.14 ± 0.068	–
CC(C)C(=O)Nc1ccc2c(c1)C(=O)N(C)[C@H]1CC[C@@H](CC(=O)NCCc3ccccc3)O[C@@H]1CO2	1.03 ± 0.06	–
COc1ccccc1CN1[C@@H]2CN(C(=O)C3CCOCC3)c3ccccc3[C@@H]2[C@@H]1CO	1.04 ± 0.051	–
COc1ccc2c3c([C@@H](CO)N(C[C@]33CCN(CC3)C(=O)c3ccccn3)S(C)(=O)=O)n(C)c2c1	0.961 ± 0.09	–
CC(C)COC(=O)N(C)C[C@@H]1OCc2ccccc2-c2ccccc2C(=O)N([C@@H](C)CO)C[C@H]1C	0.963 ± 0.14	–
Cc1noc(C)c1NC(=O)N(C)C[C@@H]1Oc2ccc(NC(=O)Cc3cn(C)c4ccccc34)cc2CC(=O)N([C@H](C)CO)C[C@@H]1C	1.01 ± 0.026	–
COc1ccc(-c2ccc([C@H]3[C@@H](C#N)N(C(=O)NC(C)C)[C@H]3CO)cc2)cc1	0.911 ± 0.012	–
CCCNC(=O)N(C)C[C@@H]1Oc2cc(C#C[C@H](C)O)ccc2S(=O)(=O)N([C@H](C)CO)C[C@@H]1C	0.995 ± 0.11	–
O=C(CCN1CCCCC1)N[C@@H]1CC[C@@H](CCn2cc(-c3cccc(F)c3)nn2)O[C@@H]1CO	1.12 ± 0.082	–
C[C@H](NC(=O)C[C@H]1CC[C@@H]2[C@H](COc3ccc(NC(=O)C4CCOCC4)cc3C(=O)N2C)O1)c1ccccc1	1.19 ± 0.15	–
COc1ccccc1NC(=O)N1CC(=O)N2[C@@H](CO)[C@@H](c3ccc(C#CC(C)C)cc3)[C@@H]2C1	1.094 ± 0.0054	–
C[C@@H]1CN([C@H](C)CO)C(=O)c2ccccc2-c2ccccc2CO[C@@H]1CN(C)S(=O)(=O)c1cn(C)cn1	1.01 ± 0.035	–
CN(C)CC(=O)N1[C@H](CO)[C@H](c2ccc(-c3cccc(C(=O)N(C)C)c3)cc2)[C@@H]1C#N	0.929 ± 0.014	–
CO[C@H](C(=O)N(C)C[C@H]1OCc2ccccc2-c2ccccc2C(=O)N([C@@H](C)CO)C[C@H]1C)c1ccccc1	0.992 ± 0.068	–
CCCN1[C@H](CO)[C@H](c2ccc(C#Cc3ccccc3)cc2)[C@@H]1CNC1CCCC1	0.914 ± 0.021	–
Cc1ccccc1S(=O)(=O)N1[C@@H]2CNC[C@H]1[C@@H]2c1ccc(-c2ccc(C#N)cc2)cc1	0.946 ± 0.024	–
Cc1ccc(S(=O)(=O)Nc2ccc3c(c2)CC(=O)N([C@H](C)CO)C[C@@H](C)[C@H](CN(C)S(=O)(=O)c2ccccc2)O3)cc1	1.02 ± 0.022	–
Cc1ccc(S(=O)(=O)N[C@H]2C=C[C@H](CC(=O)NCc3ccc(Cl)c(Cl)c3)O[C@@H]2CO)cc1	0.956 ± 0.017	–
C[C@@H]1CCn2cc(nn2)COC[C@@H](c2ccccc2)NC1=O	1.015 ± 0.005	–

SMILES	viability index [1]	viability index (library set: Broad Institute Blood Stage)
CCCN(C)C[C@H]1OCCCC[C@@H](C)Oc2ccc(NC(=O)CCCN(C)C)cc2C(=O)N([C@H](C)CO)C[C@H]1C	1.11 ± 0.14	–
O=C(C1CCC1)N1CCCCN2[C@H](CO)[C@H](c3ccc(-c4ccncc4)cc3)[C@@H]2C1	0.993 ± 0.016	–
C[C@H](CO)N1C[C@H](C)[C@@H](CN(C)C(=O)Nc2ccc(-c3cccs3)cc2)OCc2cnnn2CCCC1=O	1.11 ± 0.076	–
CCN(C[C@@H]1N[C@@H](CO)[C@@H]1c1ccccc1)C(=O)c1ccncc1	0.999 ± 0.096	–
C/C=C/c1ccc([C@H]2[C@H]3CN(Cc4ccc(F)cc4)CC(=O)N3[C@H]2CO)cc1	1.1 ± 0.074	–
O=C(C[C@@H]1C[C@@H]2c3cc(NS(=O)(=O)c4ccc(F)cc4)ccc3O[C@@H]2[C@@H](CO)O1)N1CCc2ccccc2C1	0.963 ± 0.039	–
COc1ccc(NC(=O)N2C[C@@H](O)COC[C@@H]3O[C@H](CC(=O)N4CCCCC4)CC[C@H]32)cc1	1.03 ± 0.012	–
CCC(=O)N1[C@H](CO)[C@@H](c2ccccc2)[C@@H]1CN(CC)C(=O)c1cccc(F)c1	1.08 ± 0.089	–
COc1ccc(C#Cc2ccc([C@@H]3[C@H](CO)N4CCCCN(C)C[C@@H]34)cc2)cc1	1.04 ± 0.11	–
CCCC(=O)N1C[C@]2(CCN(CC2)S(=O)(=O)CC)c2c([C@H]1CO)n(C)c1cc(OC)ccc21	1.02 ± 0.072	–
COCC(=O)N1[C@H](CO)[C@H](c2ccccc2-c2ccccc2F)[C@@H]1C#N	1.09 ± 0.058	–
O=S(=O)(c1ccc(F)cc1)N1CCCCN2[C@H](CO)[C@@H](c3ccc(-c4cncnc4)cc3)[C@H]2C1	1.035 ± 0.002	–
N#Cc1cccc(-c2ccc3c(c2)[C@@H]2[C@@H](CCN2C(=O)CN2CCOCC2)[C@H](CO)N3)c1	1.02 ± 0.02	–
O=C(Nc1ccc(F)cc1)N1[C@@H]2CNc3ccccc3[C@@H]2[C@@H]1CO	1.04 ± 0.066	–
CCCN1[C@@H]2Cn3c(ccc(-c4ccccc4)c3=O)[C@H]1[C@@H](C(=O)NCC)[C@@H]2CO	0.99 ± 0.039	–
CN1C(=O)c2cc(NC(=O)Nc3ccccc3F)ccc2OC[C@@H]2O[C@@H](CC(=O)NCCc3ccncc3)CC[C@@H]21	0.899 ± 0.052	–
CN(C)C(=O)c1ccc(-c2ccc3c(c2)[C@H]2[C@H](CCN2C(=O)C2CCCC2)[C@H](CO)N3C)cc1	1.001 ± 0.0075	–
CN1C[C@@H]2[C@H](c3ccccc31)[C@H](CO)N2S(=O)(=O)c1ccccc1	1.01 ± 0.029	–
C[C@H](CO)N1C[C@H](C)[C@@H](CN(C)C(=O)Nc2ccc(F)cc2)OCc2ccccc2-c2c(n(C)c3ccccc23)C1=O	–	0.904 ± 0.059
C/C=C/c1ccc([C@H]2[C@H]3CNC[C@@H]2N3Cc2cccc(C(F)(F)F)c2)cc1	1.05 ± 0.021	–
C[C@@H]1CN([C@@H](C)CO)C(=O)Cc2cc(NC(=O)Nc3ccc(F)cc3)ccc2O[C@@H]1CN(C)S(C)(=O)=O	1.115 ± 0.01	–
O=C(Nc1cc(F)ccc1F)N[C@@H]1CC[C@H](CC(=O)N2CCc3ccccc3C2)O[C@H]1CO	1.03 ± 0.049	–
CC(=O)N1[C@H](CNC(=O)C2CC2)[C@H](c2ccc(-c3ccccc3)cc2)[C@@H]1CO	1.05 ± 0.057	–
CN1C(=O)c2cc(NC(=O)c3cnccn3)ccc2OC[C@@H]2O[C@@H](CC(=O)N[C@H]3CCN(Cc4ccccc4)C3)CC[C@H]21	1.02 ± 0.054	–
CCc1nc(N2[C@H](CO)[C@@H](c3ccccc3-c3ccc(F)cc3)[C@@H]2C#N)sc1C	1.02 ± 0.054	–

SMILES	viability index [1]	viability index (library set: Broad Institute Blood Stage)
O=C1NCCOCn2nncc2CC[C@H]1Cc1cccc(Cl)c1	0.968 ± 0.045	–
CC(C)N(C[C@H]1N[C@H](CO)[C@H]1c1ccccc1)S(=O)(=O)c1ccccc1	1.01 ± 0.028	–
O=S(=O)(c1ccc(F)cc1)N1CCCCN2[C@H](CO)[C@H](c3ccc(-c4cncnc4)cc3)[C@H]2C1	1.01 ± 0.063	–
CN1CCN(C(=O)C[C@H]2CC[C@H]3[C@@H](COC[C@@H](O)CN3C(=O)c3ccccc3F)O2)CC1	1.07 ± 0.019	–
O=C(NC1CCCC1)[C@H]1[C@H](CO)[C@H]2Cn3c(ccc(C4=CCCCC4)c3=O)[C@@H]1N2CC1CC1	1.09 ± 0.049	–
Cc1noc(C)c1NC(=O)N[C@@H]1C=C[C@@H](CC(=O)Nc2ccc(-c3ccccc3)cc2)O[C@H]1CO	1.022 ± 0.0097	–
O=C([C@@H]1[C@@H](CO)[C@@H]2Cn3c(ccc(C4=CCCC4)c3=O)[C@H]1N2C(=O)c1cccnc1)N1CCOCC1	1.08 ± 0.038	–
CCCNC(=O)N1[C@H](CO)[C@H](c2ccc(C#Cc3cccc(F)c3)cc2)[C@@H]1C#N	1.09 ± 0.027	–
COc1ccc(S(=O)(=O)N(C)C[C@@H]2Oc3c(cccc3N(C)C)C(=O)N([C@@H](C)CO)C[C@H]2C)cc1	0.967 ± 0.058	–
O=C(Nc1ccccc1F)N1CCCCN2[C@@H](CO)[C@@H](c3ccc(/C=C/c4ccccc4)cc3)[C@@H]2C1	0.8892 ± 0.0057	–
CN(C)C(=O)c1cccc(-c2ccc([C@H]3[C@H](CO)N4CCCCN(CC5CCOCC5)C[C@@H]34)cc2)c1	0.971 ± 0.12	–
Cc1ccccc1-c1ccc([C@@H]2[C@H]3CNC[C@@H]2N3C(=O)Nc2ccc(F)cc2)cc1	0.9735 ± 0.0069	–
CCCC(=O)Nc1ccc2c(c1)OC[C@H](C)NC[C@H](C)[C@@H](OC)CN(C)C2=O	1.09 ± 0.04	–
CCS(=O)(=O)Nc1ccc2c(c1)C(=O)N(C)C[C@H](OC)[C@H](C)CN(C(=O)c1ccc3c(c1)OCO3)[C@@H](C)CO2	1.06 ± 0.024	–
CO[C@@H]1CC[C@H]2CCN(C)C(=O)CCCN(C)C(=O)c3cc(C#N)ccc3OC[C@H]1O2	1.04 ± 0.072	–
O=C(C[C@H]1CC[C@@H]2[C@H](COC[C@H](O)CN2C(=O)Nc2cccc(F)c2)O1)NCCCN1CCOCC1	1.04 ± 0.015	–
O=C(C[C@@H]1CC[C@@H]2NC[C@@H](O)COC[C@H]2O1)NCCN1CCCCC1	0.995 ± 0.088	–
CN(C)C(=O)C[C@@H]1CC[C@H]2[C@@H](COC[C@@H](O)CN2S(=O)(=O)c2ccccc2Cl)O1	1.06 ± 0.063	–
CN(C)CC(=O)N1CC2(C1)[C@@H](c1ccccc1)[C@H](CO)N2C(=O)C1CC1	1 ± 0.051	–
CN(C)Cc1cn(CC[C@@H]2CC[C@H](NC(=O)Cc3cccnc3)[C@@H](CO)O2)nn1	1.09 ± 0.096	–
O=C(NC1CCCC1)N1CCCCN2[C@H](C1)[C@H](c1ccc(-c3cccnc3)cc1)[C@@H]2CO	1.08 ± 0.012	–
O=C(CC(F)(F)F)N1C[C@H]2[C@@H](c3ccccc31)[C@H](CO)N2C(=O)C1CCCCC1	1.01 ± 0.13	–
COC(=O)C[C@H]1CC[C@@H](N)[C@@H](CO)O1	0.992 ± 0.036	–
